Reference: the supplement of paper PMC10338343
± gives the standard deviation. The list shows a part of the results, in another mix than the full data.

Tested on: MIWI (PIWIL1) piRISC loaded with L1MC piRNA (30 nt)
Assay: pre-steady-state target cleavage rate (min^-1); MIWI and MILI are mouse PIWI proteins and EfPiwi is from a freshwater sponge; tags in brackets are library labels; higher = faster piRNA-guided slicing of the target
Conditions: guide: L1MC piRNA 5'p-UAACUAAAUACUAUGCAAGCUGUAGGUCCU
Procedure, shortened: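 The pre-steady-state cleavage rate came from a burst-and-steady-state fit to pooled data from three Cleave-'n-Seq trials, in which uncleaved targets were sequenced and normalised to depth and to weakly complementary targets. Each reaction held 0.1 nM transcribed, DNA-blocked target RNA library and 1 nM active affinity-purified piRISC carrying one synthetic guide, with or without 500 nM GTSF1 partner protein, in HEPES–potassium acetate buffer at 33 °C for 0–8 or 0–960 min. k3 was capped at 0.0001 min^-1.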

[1] = auxiliary factor: 500 nM mouse GTSF1
[2] = auxiliary factor: none (no GTSF1)

Sequence	pre-steady-state target cleavage rate [1]	pre-steady-state target cleavage rate [2]
UCCUGGUACAGCUUGCAUAGUAUAAAGUAA	0.194 ± 0.037	0.00352 ± 0.0035
UCCUGGAACUGCUUGCAUACUAUUUAGUUA	0.225 ± 0.017	0.0166 ± 0.0051
AGGACCUACAGCUUGGUUAGUAUUUAGUAA	0.559 ± 0.057	0.00682 ± 0.0022
UCCACCUACAGCCUGCAUAGUAUUUAGUUA	1.15 ± 0.033	0.0634 ± 0.01
UCGACCUUGUGCUUGCAUAGUAUUUACAAA	0.101 ± 0.018	0.00294 ± 0.0017
UGGACCUACUGCUUGCAUACUAUUUAGUUA	0.29 ± 0.02	0.0286 ± 0.0067
UCCUGGAUGAGUUUGCAUAGUAUUUAGUUA	0.566 ± 0.063	0.0314 ± 0.0067
UCCUGGUAGUCCUUGCAUAGUAUUUAGUAA	0.0379 ± 0.0095	0.0044 ± 0.0023
UGGACCUACAGCUUGCAUAGAAUUUAGUUA	0.438 ± 0.034	0.0253 ± 0.0075
UCCUGGAUGAGCUUGCAUAGUAUUUAGAAA	0.299 ± 0.055	0.00764 ± 0.0029
AGGACCUACAGCUUGCUUAGUAUUUAGUAA	0.862 ± 0.079	0.0262 ± 0.0068
AGGACCUUGAGCUUGCAUAGUAUUUACAAA	0.0854 ± 0.016	0.00462 ± 0.0018
UCCUGGAUGUCCUUGCAUAGUAUUUAGGUA	0.0254 ± 0.0077	0.00394 ± 0.0024
UCCUGGUACAGCUUGCAUAGUAUUUACAAA	0.151 ± 0.025	0.00333 ± 0.0019
AGGACCUAGCAGCUUGCAUAGUAUUUAGUUA	1.21 ± 0.073	0.0735 ± 0.015
UGGAGGAACAGCUUGCAUAGUAUUUAGUAA	0.754 ± 0.05	0.0519 ± 0.012
UCCACCUACAGCUUGCAUAGUACUUAGUUA	0.641 ± 0.05	0.0364 ± 0.0054
UCGACCUACAGCUUGCAUAGUAUUUAUUA	0.224 ± 0.025	0.00303 ± 0.0029
UCGUCCUACAGCUUGCAUAGUAAUUAGUUA	0.874 ± 0.027	0.0282 ± 0.006
AGGACCUACAGCUUCCAUAGUAUUUAGUAA	0.113 ± 0.024	0.0038 ± 0.0023

Sequence	pre-steady-state target cleavage rate [1]	pre-steady-state target cleavage rate [2]
UCCUGGAACAAGCUUGCAUAGUAUUUAGUUA	0.908 ± 0.037	0.0561 ± 0.012
UCGUCCUACAGCUUGCAUUGUAUUUAGUUA	1.08 ± 0.041	0.0316 ± 0.007
UCCUGGAUGACCUUGCAUAGUAUUUUGUUA	0.0626 ± 0.013	0.00725 ± 0.0021
UCCUGGAUGAGCUAGCUUAGUAUUUAGUUA	0.125 ± 0.0099	0.00494 ± 0.0023
UCCUGCUACUGCUUGCAUAGUAUUAAGUUA	0.365 ± 0.031	0.0175 ± 0.0026
UGGACCUACAUGCUUGCAUAGUAUUUAGUUA	0.925 ± 0.054	0.0601 ± 0.013
UCCACCUACAGCUUGCAUAGAAUUUAGUAA	0.305 ± 0.04	0.0116 ± 0.0027
UCCUGCUACAGCUGGCAUAGUAUUUAGUUA	1.04 ± 0.056	0.0172 ± 0.0037
UCCUCCUAGAGCUUGCAUAGAAUUUAGUUA	0.291 ± 0.038	0.0124 ± 0.0036
UCCUGGAACAGCAUGCAUAGAAUUUAGUUA	0.299 ± 0.04	0.00996 ± 0.0027
UGGACCUACAGCUUGCAUAGUAUUUGAGUUA	0.658 ± 0.072	0.0394 ± 0.0088
UCCUGGAUGUGCUUGCAUAGUAUUUACUAA	0.038 ± 0.014	0.00585 ± 0.0025
UGGACCUACAGCUUGCAUAGUAUUUACUAA	0.143 ± 0.017	0.0153 ± 0.0048
UGGACCUUCAGCUUGCAUAGUAUUUAGAUA	0.445 ± 0.037	0.0254 ± 0.0066
UCGUGGUACAGCUUGCAUAGUAUUUACAAA	0.219 ± 0.027	0.00285 ± 0.002
UCCUCCUACAGCUCUGCAUAGUAUUUAGUUA	1.03 ± 0.044	0.0182 ± 0.0041
UCCUCCUACAGCUUGCAUAGUAUUUAGAUA	0.42 ± 0.045	0.0188 ± 0.0053
AGGUCCUACACCUUGCAUAGUAUUUAGUUA	1.11 ± 0.031	0.0618 ± 0.008
AGGACGUACAGCAUGCAUAGUAUUUAGUUA	1.21 ± 0.048	0.045 ± 0.0076
UCCUGGUACAGCGUUGCAUAGUAUUUAGUUA	0.434 ± 0.053	0.0209 ± 0.0044

Sequence	pre-steady-state target cleavage rate [1]	pre-steady-state target cleavage rate [2]
UCGACCUACAGCUAGCAUAGUAUUUAGUUA	1.28 ± 0.053	0.0292 ± 0.0072
UCCUGGAUGAGCUUGCAAAGUAUUUAGUAA	0.466 ± 0.042	0.023 ± 0.0089
UCCUGGAUGUCGUGCAUAGUAUUUAGUUA	0.031 ± 0.0083	0.00348 ± 0.0032
UCCUGGUACUGCUUGCAUAGUAUUUAGAUA	0.0569 ± 0.022	0.0123 ± 0.0034
UGGUCCUAGAGCUUGCAUAGUAUUUAGUUA	0.839 ± 0.086	0.0496 ± 0.0073
UGGACCUACAGCUUGCAAAGUAUUUUGUUA	0.783 ± 0.042	0.0169 ± 0.0033
UCGACCUACUCGUUGCAUAGUAUUUAGUUA	1.03 ± 0.035	0.022 ± 0.0041
UGGACCUUGUGCUUGCAUAGUAUUUAGUUA	0.902 ± 0.071	0.0399 ± 0.0093
UCCUGGAUGUGCUAGCAUAGUUUUUAGUUA	0.00647 ± 0.0034	0.00431 ± 0.0024
UCCUGGAACAGCUUGCAAAGUAUUUAGAAA	0.426 ± 0.062	0.00744 ± 0.0026
UGGACCUACAGCUAGCAUAGUAUUUAGAAA	0.409 ± 0.041	0.0032 ± 0.0023
UCCUGGAACAGGUUGCAUAGUAUUUAGUAA	0.751 ± 0.067	0.0102 ± 0.0026
UGGUCCUACAGCUUGCAUUGUAUUUAGUUA	0.778 ± 0.022	0.0435 ± 0.0083
UCGACCUACAGCUUGCAUAGUAUUAACUUA	0.248 ± 0.032	0.00848 ± 0.0033
UCGACCUACAGCUUGCAUACUAUUUACAAA	0.211 ± 0.035	0.00398 ± 0.0023
UCCUGGAUCAGCUUGCAUAGUAUUUAGUA	0.838 ± 0.043	0.0119 ± 0.0038
UCGACCUACACGAUGCAUAGUAUUUAGUUA	1.04 ± 0.057	0.00582 ± 0.0015
UCGACCUACAGCUUGCAUUGUAUAUAGUUA	0.554 ± 0.033	0.0131 ± 0.003
UCCACCUACAGCUUGGAUAGAAUUUAGUUA	0.296 ± 0.042	0.0112 ± 0.0031
UCCUCCUACAGGAUGCAUAGUAUUUAGUAA	0.886 ± 0.082	0.0053 ± 0.0013
